# Assay results: PubChem BioAssay AID2202238 (Ras Initiative Chemistry Research Team, Frederick National …, 2025)
# Some of the results follow. Further columns of the screen follow, without active or inactive calls.
# Molecular target: GTPase KRas (Homo sapiens) (UniProt P01116)
# Experiment: Fragment capture on engineered cysteines, share of protein labelled (AID 2202238)
# Design: protein at 5 µM with 500 µM competing thiol for 1.5 h
# Details: KRAS G12D cysteine mutants, disulfide tethering, MALDI-TOF labeling, stronger effect = higher value, fragment at 500 µM
# [1] = measured here: G75C mutant labeling
# [2] = measured here: H94C mutant labeling
# [3] = measured here: I36C mutant labeling
# [4] = measured here: L120C mutant labeling
# [5] = measured here: M67C mutant labeling
# [6] = measured here: M72C mutant labeling
# [7] = measured here: N86C mutant labeling
# [8] = measured here: P121C mutant labeling
# [9] = measured here: S122C mutant labeling
# [10] = measured here: S136C mutant labeling
# [11] = measured here: G60C mutant labeling
# [12] = measured here: N26C mutant labeling
# Sequence of UniProt P01116 (P01116 whole entry, looked up, the tested form may be a part): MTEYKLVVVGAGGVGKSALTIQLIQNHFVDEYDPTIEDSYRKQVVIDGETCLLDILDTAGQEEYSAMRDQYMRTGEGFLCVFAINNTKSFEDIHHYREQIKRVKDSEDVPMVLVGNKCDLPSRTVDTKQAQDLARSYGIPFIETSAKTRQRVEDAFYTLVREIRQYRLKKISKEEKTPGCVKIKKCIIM
SMILES,percent labeling [1] [%],percent labeling [2] [%],percent labeling [3] [%],percent labeling [4] [%],percent labeling [5] [%],percent labeling [6] [%],percent labeling [7] [%],percent labeling [8] [%],percent labeling [9] [%],percent labeling [10] [%],percent labeling [11] [%],percent labeling [12] [%]
Cc1c(NC(=O)CCS)cnn1C1CCCC1,16.3,34.7,41.9,36.8,33.7,31.9,36.9,38.4,40.4,62.4,–,–
O=C(CCS)NC1(CO)CC2(CCOCC2)C1,9.6,15.5,12.9,14.1,25.1,8.1,6.4,23,26.2,35.8,–,–
O=C(CC1CCS(=O)(=O)C1)NCCS (stereo not drawn),16.3,28.7,25.9,30.5,25.4,14.9,28,32.7,36.5,37.5,21.9,32.3
O=C(NCCS)C1CC(c2ccc(C(F)(F)F)cc2)C1 (stereo not drawn),13.4,19.7,10.9,16.4,11.6,25.4,12.6,13.7,9.3,14.5,27.1,25.9
Cc1occ(C(F)(F)F)c1CC(=O)NCCS,7.3,19.1,10.5,24.9,11.6,12.6,18.3,19.9,18.3,24.9,31.2,22.5
O=C1CCCCC2(C(=O)NCCS)CCCN12 (stereo not drawn),8.1,26.5,19.1,20.5,27.6,10.3,20.9,27.9,29.5,34.7,23.6,30.6
CN(Cc1cnn(-c2cccc(Cl)c2)c1)C(=O)CCS,15,34.4,23.4,17.8,26.2,36,21.6,41.5,17,33,–,–
Cc1cc(CC2CCCC2NC(=O)CCS)n(C)n1 (stereo not drawn),14.7,37.4,41,30,44.1,19.7,22.4,38.8,36.1,55.5,–,–
O=C(NCCS)c1cc(Br)c2occc2c1,19.9,27.6,11.8,15.5,11.9,36.6,12.5,16.5,11.5,22,43.4,32.7
O=C(NCCS)c1ncsc1C(F)(F)F,27.3,60.9,21.9,45.1,30.3,47.9,34.8,34.8,36.1,42.7,46.3,44.3
COc1ccc(Cl)cc1C(=O)N1CCC(C(=O)NCCS)CC1,13,32.7,27.1,28.7,46.2,25.5,17,26.2,34.4,48.1,31.4,40.2
Cc1ccc(-c2nc(C(=O)NCCS)cs2)o1,20.1,19.9,7.8,19.8,9.4,26,10.7,11,10.9,18.2,20.9,23
Cc1ccc(Br)c2[nH]c(C(=O)NCCS)cc12,14.1,24.9,10.5,20,10.4,22.3,11.9,18.1,7.5,12.1,35.3,22.2
